Reference: the supplement of paper PMC8792480
The other results are listed elsewhere or left out. Repeats are few or missing, and single values can be far off.

Key:
A549 [1] = assay: cell-surface PD-L1 MFI ratio relative to radiation alone (isotype-subtracted); higher = higher PD-L1 surface expression; conditions: inducer: radiation 8 Gy; 10 µM; 24 h
Description: (§1)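 A549 and H460 NSCLC cells were treated with each library drug at 10 uM, then with radiation (8 Gy) or cisplatin (4 uM), and incubated for 24 h. Cell-surface PD-L1 was measured by flow cytometry as an MFI ratio: (MFI drug+inducer - MFI isotype)/(MFI inducer alone - MFI isotype). Hits were defined as ratio < 0.75.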

NCI-H460 [2] = assay: as above; conditions: inducer: radiation 8 Gy; 10 µM; 24 h
Description: as §1

NCI-H460 [3] = assay: cell-surface PD-L1 MFI ratio relative to cisplatin alone (isotype-subtracted); higher = higher PD-L1 surface expression; conditions: inducer: cisplatin 4 uM; 10 µM; 24 h
Description: as §1

A549 [4] = assay: as above; conditions: inducer: cisplatin 4 uM; 10 µM; 24 h
Description: as §1
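Throughout, for cell-surface PD-L1 MFI ratio relative to radiation alone (isotype-subtracted): surface PD-L1 on NSCLC cells stained with a PE-labelled anti-human PD-L1 antibody before flow cytometry, screening a library of roughly two hundred mostly kinase and epigenetic inhibitors.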

| Structure (SMILES) | cell-surface PD-L1 MFI ratio (A549 [1]) | cell-surface PD-L1 MFI ratio (NCI-H460 [2]) | cell-surface PD-L1 MFI ratio (NCI-H460 [3]) | cell-surface PD-L1 MFI ratio (A549 [4]) |
| --- | --- | --- | --- | --- |
| CCN(c1cc(-c2ccc(CN3CCOCC3)cc2)cc(C(=O)NCc2c(C)cc(C)[nH]c2=O)c1C)C1CCOCC1 [Tazemetostat (EPZ-6438)] | inactive: 0.818 | inactive: 0.839 | inactive: 0.968 |  |
| NC(=O)c1ncn([C@@H]2O[C@H](CO)[C@@H](O)[C@H]2O)c1N [AICAR (Acadesine)] | inactive: 0.937 | inactive: 1.45 | inactive: 1.09 |  |
| O=C1[C@H](Cc2ccc(O)cc2)N2C(=O)CCN(C(=O)NCc3ccccc3)[C@H]2CN1Cc1cccc2ccccc12 | inactive: 1.17 | inactive: 0.935 | inactive: 1.51 | inactive: 2.29 |
| Cc1cc(C)cc(Oc2ccc(CNC(=O)[C@H](C)N)cc2C)c1 | inactive: 0.931 | inactive: 1.71 | active: 0.714 | active: 0.471 |
| CCNC(=O)c1noc(-c2cc(C(C)C)c(O)cc2O)c1-c1ccc(CN2CCOCC2)cc1 [Luminespib (AUY-922, NVP-AUY922)] | inactive: 0.973 | inactive: 0.863 | active: 0.492 | active: 0.644 |
| CNC(=O)c1cc(Oc2ccc3nc(N[C@@H]4CCCC[C@H]4O)sc3c2)ccn1 | active: 0.675 | inactive: 1.19 | inactive: 1.39 | inactive: 1.05 |
| CCN(CC)CCNC(=O)c1c(C)[nH]c(/C=C2\C(=O)Nc3ccc(-c4csc(-c5ccccc5)n4)cc32)c1C [Amcasertib (BBI503)] | inactive: 6.4 | inactive: 3.6 | inactive: 4.21 | inactive: 6.29 |
| Cc1nc(NC(=O)N2CCC[C@H]2C(N)=O)sc1-c1ccnc(C(C)(C)C(F)(F)F)c1 [Alpelisib (BYL719)] | active: 0.7 | active: 0.69 | active: 0.474 |  |
| O=C(/C=C/N1C[C@H]2C[C@@H]1CN2c1ccccn1)c1ccccc1O | active: 0.73 | inactive: 0.929 | active: 0.636 |  |
| Cn1cc(-c2ccc(F)c(C(F)(F)F)c2)nc1C1CCN(c2ncnc3[nH]ncc23)CC1 | inactive: 1.24 | inactive: 1.61 | inactive: 1.22 | active: 0.647 |
| Cc1[nH]c2ccc(F)cc2c1-c1nc2c3cccnc3c3ncccc3c2[nH]1 | inactive: 1.51 | inactive: 1.2 | inactive: 0.92 |  |
| Oc1c2ccccc2c2c3c(cccc13)N=N2 | inactive: 0.946 | inactive: 1.27 | inactive: 1.34 | inactive: 0.989 |
| O=C1CCc2c(Oc3ccc4c(c3)[C@@H]3[C@H](O4)[C@H]3c3nc4cc(C(F)(F)F)ccc4[nH]3)ccnc2N1 [Lifirafenib (BGB-283)] | inactive: 0.934 | active: 0.625 | inactive: 0.84 |  |
| CN(CC(=O)N(Cc1ccc(C2CCCCC2)cc1)c1ccc(C(=O)O)cc1)S(=O)(=O)c1c(F)c(F)c(F)c(F)c1F | inactive: 1.06 | inactive: 1.35 | inactive: 1.02 | inactive: 0.868 |
| COc1ccc(S(=O)(=O)N(CCO)c2ccccc2CN(C)C/C=C/c2ccc(Cl)cc2)cc1 [KN-93 Phosphate] | inactive: 0.942 | inactive: 0.976 | inactive: 1.39 |  |
| C=CC(=O)N1CCC([C@@H]2CCNc3c(C(N)=O)c(-c4ccc(Oc5ccccc5)cc4)nn32)CC1 [Zanubrutinib] | inactive: 1.12 | inactive: 1.11 | inactive: 1.3 | inactive: 1.2 |
| CN(C)C(=O)c1ccc(S(=O)(=O)c2ccc(NC(=O)[C@@](C)(O)C(F)(F)F)c(Cl)c2)cc1 | inactive: 0.915 | inactive: 1.34 | inactive: 1.51 | inactive: 1.02 |
| COc1cc(Nc2ncc3c(n2)-c2ccc(Cl)cc2C(c2c(F)cccc2OC)=NC3)ccc1C(=O)O [Alisertib (MLN8237)] | inactive: 0.83 | inactive: 2.14 | inactive: 1.32 |  |
| COc1cc2nccc(Oc3ccc(NC(=O)NC4CC4)c(Cl)c3)c2cc1C(N)=O [Lenvatinib] | inactive: 1.46 | inactive: 1.25 | inactive: 1.23 | active: 0.512 |
| Cc1[nH]c(/C=C2\C(=O)Nc3ccc(S(=O)(=O)Cc4c(Cl)cccc4Cl)cc32)c(C)c1C(=O)N1CCC[C@@H]1CN1CCCC1 | inactive: 2.63 | inactive: 44.1 | inactive: 34.5 |  |
| C[C@H](NC(=O)c1c(N)nn2cccnc12)c1cc2cccc(C#Cc3cnn(C)c3)c2c(=O)n1-c1ccccc1 | active: 0.73 | inactive: 0.845 | inactive: 1.25 |  |
| NC(=O)C1CCCc2c1[nH]c1ccc(Cl)cc21 (stereo not drawn) [Selisistat (EX 527)] | active: 0.654 | inactive: 2.07 | inactive: 1.02 | active: 0.65 |
| CCn1cc(-c2cccc(C(F)(F)F)c2)c2sc(C(=N)NC3CCS(=O)(=O)CC3)cc2c1=O | active: 0.727 | active: 0.72 | active: 0.594 |  |
| CCOc1ccn(-c2ccc(F)cc2)c(=O)c1C(=O)Nc1ccc(Oc2ccnc(N)c2Cl)c(F)c1 | inactive: 1.19 | inactive: 1.05 | inactive: 1.67 | inactive: 1.53 |

| Structure (SMILES) | cell-surface PD-L1 MFI ratio (A549 [1]) | cell-surface PD-L1 MFI ratio (NCI-H460 [2]) | cell-surface PD-L1 MFI ratio (NCI-H460 [3]) | cell-surface PD-L1 MFI ratio (A549 [4]) |
| --- | --- | --- | --- | --- |
| CCOc1cc(N2CCC(O)CC2)ccc1Nc1ncc2c(n1)N(C)c1ccccc1C(=O)N2C | inactive: 0.887 | inactive: 1.11 | active: 0.749 | inactive: 0.95 |
| N#CC[C@H](C1CCCC1)n1cc(-c2ncnc3[nH]ccc23)cn1 | inactive: 1.38 | inactive: 1.12 | inactive: 1.47 |  |
| O=C(/C=C/c1cncc(F)c1)c1c(-c2ccccc2)c2cc(Cl)ccc2[nH]c1=O | inactive: 2.55 | inactive: 0.964 | inactive: 0.848 |  |
| O=C(O)c1ccc2c(c1)nc(Nc1cccc(Cl)c1)c1ccncc12 [Silmitasertib (CX-4945)] | inactive: 0.791 | inactive: 0.78 | inactive: 0.824 |  |
| Cc1nc(Nc2n[nH]c3c2CN(C(=O)N[C@H](CN(C)C)c2ccccc2)C3(C)C)c2sccc2n1 | inactive: 1.09 | active: 0.557 | inactive: 1.44 | inactive: 0.814 |
| CCc1ccc(C(=O)Nc2cc(CN3CCN(C)CC3)cc(C(F)(F)F)c2)cc1C#Cc1cnc2ccnn2c1 | inactive: 0.927 | inactive: 1.04 | inactive: 0.84 | inactive: 1.09 |
| CCN(CC)CCNC(=O)c1c(C)[nH]c(/C=C2\C(=O)Nc3ccc(F)cc32)c1C [Sunitinib] | inactive: 48.9 | inactive: 20.3 | inactive: 17.7 | inactive: 32.6 |
| CC(C)S(=O)(=O)c1ccc2nccc(Nc3ccc4scnc4c3)c2c1 | active: 0.676 | inactive: 1.33 | inactive: 1.34 |  |
| CC1(C)[C@@H](O[C@H]2O[C@H](C(=O)O)[C@@H](O)[C@H](O)[C@H]2O[C@@H]2O[C@H](C(=O)O)[C@@H](O)[C@H](O)[C@H]2O)CC[C@]2(C)[C@H]3C(=O)C=C4[C@@H]5C[C@@](C)(C(=O)O)CC[C@]5(C)CC[C@@]4(C)[C@]3(C)CC[C@@H]12 [Glycyrrhizin (Glycyrrhizic Acid)] | inactive: 0.77 | inactive: 0.929 | inactive: 1.39 | inactive: 0.958 |
| O=c1cc(CN2CCOCC2)occ1OCCCCCSc1ccnc2cc(C(F)(F)F)ccc12 | active: 0.6 | inactive: 1.27 | inactive: 0.92 | active: 0.574 |
| N#Cc1ccc2ncnc(NCCc3ccccc3)c2c1 [Senexin A] | inactive: 0.939 | inactive: 1.05 | inactive: 0.888 | active: 0.641 |
| Cc1cnc(NC(=O)Nc2cc(Br)c(C)cc2OC[C@@H]2CNCCO2)cn1 | inactive: 0.858 | inactive: 1.32 | inactive: 0.816 | active: 0.652 |
| Oc1nc(-c2ccc(C(F)(F)F)cc2)nc2c1CSCC2 | inactive: 1.09 | inactive: 1.35 | inactive: 0.799 | active: 0.603 |
| Cc1ccc(CNc2ncnc3ccc(-c4ccc(CO)o4)cc23)o1 | inactive: 0.825 | inactive: 1.18 | inactive: 1.04 |  |
| CCc1cncnc1N1CCN(Cc2nc3ccc(C(F)(F)F)cc3[nH]2)CC1 | inactive: 1.08 | inactive: 1.01 | inactive: 1.43 |  |
| NC(=O)c1cnc(NCCc2ccc(O)c(Cl)c2)nc1NCc1ccccc1 | inactive: 0.781 | active: 0.443 | inactive: 0.936 |  |
| CCN(CCCOc1ccc2c(Nc3cc(CC(=O)Nc4cccc(F)c4)[nH]n3)ncnc2c1)CCOP(=O)(O)O [Barasertib (AZD1152-HQPA, AZD2811)] | inactive: 1.2 | inactive: 1.69 | inactive: 1.14 |  |
| Cc1cc(Nc2cc(N)ncn2)c(=O)n2c1C(=O)NC21CCCCC1 [Tomivosertib (eFT-508)] | inactive: 0.807 | inactive: 1.03 | inactive: 1.11 |  |
| C[C@]1(O)C[C@@H](c2nc(-c3ccc4ccc(-c5ccccc5)nc4c3)c3c(N)nccn32)C1 [Linsitinib (OSI-906)] |  | inactive: 1.15 | inactive: 1.42 | inactive: 1.1 |
| CC1(C)C(=O)N(CCN2CCC(C(=O)c3ccc(F)cc3)CC2)c2ccccc21 | inactive: 1.12 | inactive: 1.15 | inactive: 1.37 |  |
| CC(C)Oc1ccc(C(=O)N[C@H](CNC(=O)CN(C)C)Cc2ccc(-c3cn4cccc([C@H](C)O)c4n3)cc2)cc1Cl | inactive: 1.2 | inactive: 1.99 | inactive: 0.832 |  |
| Oc1ccc(Nc2nc(-c3ccc(Cl)cc3)cs2)cc1 | active: 0.657 | inactive: 1.26 | active: 0.614 |  |
| CC(=O)Nc1cccc(-n2c(=O)n(C3CC3)c(=O)c3c(Nc4ccc(I)cc4F)n(C)c(=O)c(C)c32)c1 | inactive: 1.58 | inactive: 0.923 | inactive: 0.848 |  |
